Measurements from US20100004180A1, “Agents for the Detection and Modulation of B-Cells and Antibodies” (priority 2008, published 2010).
Where no end group is shown, it is not given here.

How the values were obtained:
MRL/1pr mice = assay: In vivo experiments: IPA in drinking water of autoimmune mice
Method: In vivo experiments. Female LRL/1rp mice were receiving either normal water or 20 mM IPA (pH ˜7) starting from the age of 5 weeks. Mice were killed at the age of 22 weeks and their lymph nodes, spleens and kidneys were weighed and subjected to histological analysis.

[1] = tested on: spleen and peritoneal B cells; assay: ELISPOT of B cells on phage-displayed W determinants; type: cell-based, Balb/c mice
Method: ELISPOT. Spleen and peritoneal washout were prepared using 10-12 wk-old Balb/c mice and B cells were isolated using the StemCell Technologies protocol and reagents. Isolated B cells were suspended in 10% FBS/DMEM and incubated overnight in a 96-well polypropylene plate containing indolylpropionic acid (IPA) solution at 0.625 mM −2.5 mM at 37° C. in the presence of 5% CO2. The cells were transferred into a phage- or anti-IgM antibody-coated ELISPOT plate (Millipore MltiScreenHTS), at 200-15000 cells per well, and incubated overnight at 37° C. in the presence of 5% CO2. Coating phage and goat anti-mouse IgM antibody (positive control) were used at 10^11 pfu/ml and 10 μg/ml, respectively. Phage clones displaying W determinants and control peptids lacking Trp residues were used. Coating was allowed to proceed overnight with gentle rocking. Next day, plates were blocked, washed and seeded with cells. LPS-stimulated spleen and peritoneal B cells were prepared by incubating cells in 10% FBS/DMEM containing 10 μg/ml LPS for 24, 48 and 72 hours (10^6 cells/ml). Stimulated cells were transferred into ELISPOT plates (200-15000 cells/wells). ELISPOT plates were processed as follows. After discarding the well media, plate were washed once with H2O and then 6 times with 0.05% Tween-20 in TBS and incubated with biotin-labeled anti-mouse IgM antibody in 1% BSA/TBS. […]

natural IgM = assay: ELISA: inhibition of natural IgM (Nab) binding to W-determinants by indole compounds; details: in vitro, compound added into the incubation medium
IgM60 = assay: ELISA IgM-binding competition, polyspecific IgM60; parameters: species or system Balb/c mice; details: FIG. 2F
IgM58 = assay: ELISA IgM-binding competition, polyspecific IgM58; parameters: species or system Balb/c mice; details: FIG. 2E
[2] = peptide devoid of TP determinant

O=C(O)CCc1c[nH]c2ccccc12 [IPA, indole-3-propionic acid]
development of autoimmunity (MRL/1pr mice; 20 mM IPA instead of water): prevents | development of lymphoproliferation (MRL/1pr mice; IPA added to drinking water): prevents | appearance of IgG antibodies reacting with W determinants (MRL/1pr mice; adult mice, IPA in drinking water): prevents | B-cell secretion of Nabs in ELISPOT [1]: suppresses | reduction of the number of cells binding to W determinants ([1]; 2.5 mM IPA in the medium): 70-80%

CC(=O)N[C@@H](Cc1c[nH]c2ccccc12)C(=O)O [N-acetyl-tryptophan]
inhibition of IgM binding to W-determinants (natural IgM): inhibited

O=C(O)C=Cc1c[nH]c2ccccc12 [indole-3-acrylic acid]
inhibition of IgM binding to W-determinants (natural IgM; listed as trans-3-indoleacrylic acid): at least as effectively as IPA

N[C@@H](Cc1c[nH]c2ccccc12)C(=O)O [tryptophan, reference compound]
inhibition of IgM binding to W-determinants (natural IgM): no effect

Ac-DGA-DLLDR
reduction of IgM60 binding to DNP(10)-BSA (IgM60): significantly reduced | reduction of IgM60 binding to PC(15)-BSA (IgM60): significantly reduced | reduction of IgM60 binding to TNP(14)-BSA (IgM60): significantly reduced | inhibition of IgM60 binding to peptide PERVF (IgM60; peptide devoid of L-determinant): completely inhibited

Ac-RLTPR [synthetic peptide with TP-determinant, reacts with IgM58]
inhibition of IgM58 binding to TNP(14)-BSA (IgM58): moderately | inhibition of IgM58 binding to myosin (IgM58): completely inhibited | inhibition of IgM58 binding to thyroglobulin (IgM58): completely inhibited | inhibition of IgM58 binding to T7-ARTRL (IgM58; [2]): completely inhibited | inhibition of IgM58 binding to T7-RYIGK (IgM58; [2]): completely inhibited
